Reference: ChEMBL document CHEMBL1156829
In all, about 5,400 compounds were measured (“IFI”: median about 2, highest 2% from about 22 on). Some of the results follow.

test: NOVARTIS: Inhibition Frequency Index (IFI) - the number of HTS assays where a compound showed > 50% inhibition/induction, expressed as a percentage of the number of assays in which the compound was tested.; assay type: functional

| SMILES | IFI [%] |
| --- | --- |
| CCOC(=O)c1ccc(OCC2c3cc(OC)c(OC)cc3CCN2C(=O)c2ccc([N+](=O)[O-])cc2)cc1 (stereo not given) | 0 |
| COC(=O)C1=C(OC)C(=O)OC12C=CC(=O)C=C2 | 20.4 |
| Fc1ccc(-c2c[n+](-c3ccccc3)c3n2CCS3)cc1 | 1.92 |
| CCc1c(C#N)c(N)nc(SCC(=O)c2ccc(C)cc2C)c1C#N | 7.14 |
| COc1ccc2nc(C)cc(Nc3ccc(Oc4ccc5ccccc5c4Cl)c(Cl)c3)c2c1 | 0 |
| COc1ccc(CN2CSC3=C(C#N)C(c4cccc(OC)c4)CC(=O)N3C2)cc1 (stereo not given) | 0 |
| COc1ccccc1NC(=O)Cn1cnc2sc(C(=O)Nc3ccc(F)cc3)c(C)c2c1=O | 3.53 |
| CCN(CC)C(CN1CCN(CC(C)C(=O)c2ccc(O)cc2)CC1)c1ccc(F)cc1 (stereo not given) | 1.05 |
| O=C(Nc1cccc(OC(=O)c2ccc([N+](=O)[O-])cc2)c1)c1ccc([N+](=O)[O-])cc1 | 0 |
| N=C(NN=Cc1ccc([N+](=O)[O-])cc1)NN=Cc1ccc([N+](=O)[O-])cc1 | 0 |
| CCN1/C(=C/c2ccc3ccccc3[n+]2CC)Sc2sc3ccccc3c21 | 18.3 |
| CC(C)(C)NC(=O)C(c1cccs1)N(CCCN1CCOCC1)C(=O)c1ccc(-c2ccccc2)[nH]1 (stereo not given) | 3.26 |
| COc1cccc(CN2CCc3nc(N4CCCCC4)sc3C2)c1 | 9.72 |
| Cc1ccc(NC(=O)CN2CCN(c3ccccn3)CC2)cc1F | 0 |
| COc1ccc(NC(=O)Cn2c(-c3ccc(OC)cc3)cn(-c3ccc(C)cc3)c2=O)cc1 | 0 |
| O=[N+]([O-])c1ccc2nc(Nc3ccccc3)c(Nc3ccccc3)nc2c1 | 14.3 |
| CCn1c(CNc2ccc(Cl)cc2)nnc1SCC(=O)Nc1cccc(C)c1C | 2.88 |
| Oc1ccc(C2Nc3ccc4ccccc4c3C3C=CCC32)cc1 (stereo not given) | 0 |
| CC(=O)Nc1cccc(N(C(=O)C2COc3ccccc3O2)C(C(=O)NC2CCCCC2)c2ccc(O)cc2)c1 (stereo not given) | 2.08 |
| Cc1cc(C)c2nc(NS(=O)(=O)c3cccc(C(=O)O)c3)sc2c1 | 0 |
| COc1ccc2[nH]c3c(=O)n(C)cnc3c2c1 | 0 |
| CSc1nc(SC)c2c3c(sc2n1)CN(C)CC3 | 3.03 |
| COc1ccc(CN2CCN(Cc3ccc(OC)c(C)c3C)C(CCO)C2)c(O)c1 (stereo not given) | 0 |
| C=CCNC(=O)CSc1ccc(C(=O)Nc2ccc(Cl)cc2F)cc1[N+](=O)[O-] | 0 |
| COc1ccc(C2CC(=O)C3=C(C2)NC(C)=C(C(=O)OC(C)C)C3c2ccccc2Br)cc1 (stereo not given) | 4.6 |

| SMILES | IFI [%] |
| --- | --- |
| c1ccc2c(NCCNc3c4ccccc4nc4ccccc34)c3ccccc3nc2c1 | 7.32 |
| C=CCN1Cc2ccc(C(=O)NCc3ccccc3)cc2N=C1c1ccc(F)cc1 | 3.9 |
| O=C1CC(c2ccccc2)CC2=C1C(c1cc(F)ccc1F)Nc1ccccc1N2 (stereo not given) | 1.21 |
| COc1cc(C=NNc2nc3nonc3nc2Nc2ccc(Cl)cc2)ccc1O | 7.69 |
| CCC(C)(C)c1ccc(OCCCC[n+]2ccc(C)cc2)c(C(C)(C)CC)c1 | 7.14 |
| O=C(Nc1ccc2c(c1)OCO2)c1cc2cc(C3(O)CCN(CCCc4ccccc4)CC3)ccc2o1 | 5.22 |
| CC1CN(C(=O)C(Cc2c[nH]c3ccccc23)NC(=O)CCl)CCN1C(=O)Nc1ccccc1 (stereo not given) | 1.87 |
| CCOC(=O)c1nnn(-c2nonc2N)c1-c1ccc(Cl)cc1 | 0 |
| O=C(Nc1nc2ccccc2s1)c1ccc(S(=O)(=O)N2CCOCC2)cc1 | 5.34 |
| CCCC(=O)N1CCN(C(=O)c2nc(-c3ccccc3)nc(CCC)c2C(=O)OCC)CC1C (stereo not given) | 4.63 |
| O=C(NCCCCNc1ccnc2cc(Cl)ccc12)C1CCCCC1 | 4.67 |
| CC(CC(=O)NCCCCNc1ccnc2cc(Cl)ccc12)CC(C)(C)C (stereo not given) | 3.74 |
| CCOc1cc(Br)cc(/C=C2\NC(=S)NC2=O)c1O | 0 |
| Cc1ccc(C(=O)NC2CCN(S(=O)(=O)c3c(C)cc(C)cc3C)CC2)cc1 | 3.85 |
| COC(=O)c1c(-c2c(Cl)cccc2Cl)noc1/C=C/Nc1ccccc1 | 2.67 |
| COc1ccc2nc(C)cc(Nc3ccc(Oc4ccc(Cl)c5ccccc45)c(Cl)c3)c2c1 | 10.1 |
| CC(C)c1ccc(/C=C2/SC(=Nc3ccccc3)NC2=O)cc1 | 0 |
| CCN(CC)CCCC(C)Nc1cc(/C=C/c2ccc([N+](=O)[O-])cc2)nc2ccc(OC)cc12 (stereo not given) | 4.54 |
| CCCC(=O)N1CCN(C(=O)c2nc(-c3ccccc3)nc(C(C)C)c2C(=O)OC)CC1C (stereo not given) | 2.78 |
| Cc1cc(Nc2ccc([N+](=O)[O-])cc2O)nc2ccccc12 | 0 |
| COc1ccc(C(=O)Nc2nonc2-c2ccc(OC)c(OC)c2)cc1Cl | 0 |
| O=C(CN1CCN(C(=O)c2ccco2)CC1)Nc1cc(C(F)(F)F)ccc1Cl | 0 |
| Clc1ccc2[nH]c3c(NCCCN4CCOCC4)ncnc3c2c1 | 11.8 |
| N#Cc1cn(-c2ccc(Cl)cc2)c(=O)n(Cc2c(Cl)cccc2Cl)c1=O | 3.48 |
| COc1ccccc1N(CC(=O)N1CCCCC1)S(=O)(=O)c1ccccc1 | 0 |
